# Experimental data published in PubChem BioAssay (NCATS).
# Inconclusive results, whose numbers are uncertain, are shown with a selection of clear calls. A potency beside an inconclusive call is a rough fit, not a confirmed value. The source made the active and inactive calls. Calls follow the shape of the dose curve; as a rule, active = well fitted cell-killing curve with a large enough effect; inconclusive = small, poorly fitted or top-dose-only effect; inactive = flat fitted curve, though single readings scatter.
# Experiment: qHTS of pediatric cancer cell lines to identify multiple opportunities for drug repurposing: Primary screen for DAOY cells (AID 1347090); also: nearly all actives have a fitted effect of over 55% in size
# Conditions: DAOY medulloblastoma viability, CellTiter-Glo luminescence, 48 h; series mostly up to 46 µM
# Outline: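 Viability measured as metabolically active cells via CellTiter-Glo luminescence following 48 hours of compound exposure, 11-point dilutions in confirmatory testing. 500-1,000 cells/well plated 5 hours before dosing; controls were DMSO and 2.3 µM bortezomib.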
# Potency is read from the fitted curve at half-maximal effect; tags tell the direction and shape of the fitted curve.
row,Compound,Potency
1,CC(C)c1ccc2oc3nc(N)c(C(=O)O)cc3c(=O)c2c1,"inconclusive: 37.2 µM [cytotoxic, single point]"
2,CN1CC(=O)N2C(Cc3c([nH]c4ccccc34)[C@H]2c2ccc3c(c2)OCO3)C1=O (stereo not given in full),inactive
3,OC[C@H]1O[C@@H](n2cnc3c2NC=NC[C@@H]3O)C[C@H]1O,"inconclusive: 29.6 µM [cytotoxic, single point]"
4,CN1CCN(c2cc3c(nn2)Oc2ccccc2N3C)CC1,inactive
5,NC(=O)C(c1ccccc1)(c1ccccc1)[C@@H]1CCN(CCc2ccc3c(c2)CCO3)C1,"inconclusive: 33.5 µM [cytotoxic, single point]"
